From PubChem BioAssay AID624296 (National Center for Advancing Translational Sciences (NCATS), 2012)
Out of some 350,000 compounds screened, about 9,900 (2.8%) were called active. Inconclusive means that the source gave no clear call. Such entries were picked first, then a sample of the others. The call rests on the fitted dose curve; in most records, active means well fitted activation curve with a large enough effect; inconclusive means small, poorly fitted or top-dose-only effect; inactive means no such curve, though single readings can be large or run the other way. Potencies of inconclusive entries are left out as doubtful fits.

experiment: A quantitative high throughput screen for small molecules that induce DNA re-replication in MCF 10a normal breast cells.; further: nearly all actives have a fitted effect of over 50% in size; on activity, positive = re-replication: % of control where 0% means no effect; details: MCF 10A DNA re-replication, Hoechst nuclear intensity, 48 h; activity, positive = re-replication: at 46.1 µM (top of the series)
Potency means the concentration at half of the fitted maximal effect; tags describe the fitted curve by direction and shape.

Row | SMILES | Potency | activity, positive = re-replication
1 | O=C(CC(NS(=O)(=O)c1ccc(Cl)cc1)c1ccco1)NC1CCCC1 (stereo unspecified) | inconclusive [activator, partial curve, poor fit] | 
2 | CCOC(=O)c1ccc2[nH]c(C)c(C)c2c1 | inconclusive [activator, partial curve, poor fit] | 
3 | CCc1cc(-c2[nH]ncc2-c2ccc(OC)cc2)c(O)cc1O |  | inactive: -22.9%
4 | N#Cc1nc(COc2ccc(Cl)cc2)oc1NCc1ccc2c(c1)OCO2 | inconclusive [activator, single point] | 
5 | N#CC1=C(N)NC(SCc2ccc(F)cc2)=C(C#N)C12CCCCC2 | active: 8.2 µM | 
6 | Cc1ccc(CCC(=O)Nc2ncc(Cc3cc(Cl)ccc3Cl)s2)o1 | active: 1.16 µM | 
7 | Cc1ccc2occ(C(c3nnnn3C3CCCC3)N3CCN(C(=O)c4ccco4)CC3)c(=O)c2c1 (stereo unspecified) |  | inactive: -8.14%
8 | COc1cc(OC)c2ccc(=O)oc2c1C(CCN1CCCC(C)C1)c1ccc(N(C)C)cc1 (stereo unspecified) |  | inactive: 3.7%
9 | Cc1ccc(-n2c(SCC(=O)NCc3ccco3)nc3c([nH]c4ccccc43)c2=O)cc1 | inconclusive [activator, single point] | 
10 | COc1ccc(CCNc2ncnc3sccc23)cc1OC |  | inactive: 12.2%
11 | COc1cccc(N2CC(C(=O)Nc3ccc(F)cc3)CC2=O)c1 (stereo unspecified) | inconclusive [activator, partial curve, poor fit] | 
12 | COc1ccccc1-c1nnc(NC(=O)Cc2ccccc2)o1 |  | inactive: -5.38%
13 | O=C(NCc1ccccc1Cl)c1cccc(OC2CCN(C(=O)C3CC3)CC2)c1 |  | inactive: 12.7%
14 | Cc1ccc(S(=O)(=O)N2CCOCC2)cc1C(=O)NCc1cccnc1 |  | inactive: -3.16%
15 | CC(C)[C@H](NS(=O)(=O)c1ccc2c(c1)OCCO2)C(=O)OCC(=O)Nc1ccccc1Cl |  | inactive: -8.28%
16 | Cc1nc(CNC(=O)C2CCC(=O)N(CCc3ccc(Cl)cc3)C2)sc1C (stereo unspecified) | inconclusive [activator, single point] | 
17 | Cc1cc(SCC(=O)NC(=O)NCc2ccco2)nc2c(C)cccc12 | inconclusive [activator, single point] | 
18 | Cc1cc2cc(CN(C(=O)C3CC3)C3CCCC3)c3nnnn3c2cc1C | inconclusive [activator, partial curve, poor fit] | 
19 | COc1ccc(C2CC(c3ccccc3)=NN2C(=O)c2ccc(Cl)c([N+](=O)[O-])c2)cc1 (stereo unspecified) | inconclusive [activator, partial curve] | 
20 | COc1ccc(-c2nn3c(-c4ccccc4)nnc3s2)cc1 | inconclusive [activator, partial curve, poor fit] | 
21 | CSCCC(NS(=O)(=O)c1ccc(Cl)cc1)C(=O)OCc1cccc(Cl)c1 (stereo unspecified) | inconclusive [activator, single point] | 
22 | Cc1ccc(C(CC(=O)NCCCN(C)C)c2ccc(OC(C)C)cc2)cc1 (stereo unspecified) | inconclusive [activator, single point] | 
23 | CC(=O)Oc1ccc2c(C)cc(=O)oc2c1C(=O)c1ccccc1 | inconclusive [activator, full curve, poor fit] | 
24 | Oc1c(Br)cc(Br)cc1C=Nc1ccc2c(c1)OCO2 | inconclusive [activator, single point] | 

Row | SMILES | Potency | activity, positive = re-replication
25 | CC(C)CN(C(=O)c1cccc(S(=O)(=O)N2CCN(Cc3ccccc3)CC2)c1)C1CCS(=O)(=O)C1 (stereo unspecified) |  | inactive: 5.73%
26 | CC(C)(C)C(=O)NC(=S)Nc1ccccn1 |  | inactive: -9.06%
27 | COc1ccc(/C=C2\N=C(c3ccc(C)cc3)OC2=O)cc1 | inconclusive [activator, single point] | 
28 | C=CCOc1c(Br)cc(CNc2ccc(NC(=O)C(C)C)c(OC)c2)cc1OC | active: 5.8 µM | 
29 | CCOC(=O)C1(Cc2ccccc2)CCN(Cc2ccc(C)s2)CC1 | inconclusive [activator, single point] | 
30 | O=C(Oc1coc(CSc2nnc(NC(=O)c3cccs3)s2)cc1=O)c1ccccc1 | inconclusive [activator, partial curve, poor fit] | 
31 | COc1ccc(C(=O)c2sc(Nc3ccccc3)nc2N)cc1 | inconclusive [activator, single point] | 
32 | COc1ccc(CN2CCOCC2)cc1OC |  | inactive: 0.796%
33 | O=C(Cc1ccccc1)NC(=S)Nc1ccc(N2CCCCC2)cc1 | inconclusive [activator, full curve, poor fit] | 
34 | C=CCSc1nc(C)c(CCC(C)C)c(=O)[nH]1 | inconclusive [activator, single point] | 
35 | COc1ccc(S(=O)(=O)N2CCCCC2)cc1NC(=O)Cc1cccs1 | inconclusive [activator, single point] | 
36 | COc1cc(C(=O)N2c3ccccc3CCC2C)cc(OC)c1OC (stereo unspecified) | inconclusive [activator, full curve, poor fit] | 
37 | Cn1nc(C(C)(C)C)c([N+](=O)[O-])c1C(=O)Nc1cccc2ccccc12 | inconclusive [activator, partial curve, poor fit] | 
38 | Cc1cc(S(=O)(=O)N2CCOCC2)ccc1OCC(=O)NCCCn1ccnc1 |  | inactive: -0.156%
39 | CCCOc1ccc(C(=O)N/N=C/c2ccc(-c3ccc(S(=O)(=O)Nc4ncccn4)cc3)o2)cc1 | inconclusive [activator, full curve, poor fit] | 
40 | COc1ccc(-c2cc(C(=O)N(C)CCc3ccc(OC)c(OC)c3)c3ccccc3n2)cc1 | inconclusive [activator, single point] | 
41 | CS(=O)c1ccccc1-c1nc(-c2cc(C(F)(F)F)cc(C(F)(F)F)c2)no1 (stereo unspecified) |  | inactive: -2.66%
42 | Cc1ccc(S(=O)(=O)N2CCN(C(=O)c3sccc3-c3ccccc3)CC2)cc1 |  | inactive: 8.05%
43 | C/C(=C\C(=O)c1ccc(Br)cc1)NNC(=O)c1ccccc1 |  | inactive: -0.931%
44 | CC1CCN(C(=O)c2ccc(NC3=C(Cl)C(=O)N(Cc4ccccc4)C3=O)cc2)CC1 | active: 23.1 µM | 
45 | Cc1ccc(C(NC(=O)c2ccccc2)C(Cl)(Cl)Cl)cc1 (stereo unspecified) | inconclusive [activator, partial curve, poor fit] | 
46 | COc1ccc(NC(=O)Cc2coc3ccc4ccccc4c23)cc1S(=O)(=O)N1CCOCC1 | inconclusive [activator, partial curve, poor fit] | 
47 | Cc1cccc(NS(=O)(=O)c2ccc(C)c(C(=O)NC3CCN(Cc4ccccc4)CC3)c2)c1 | inconclusive [activator, single point] | 
48 | CC(C)CC(=O)Nc1nc(-c2ccc(S(=O)(=O)N3CCOCC3)cc2)cs1 | inconclusive [activator, full curve, poor fit] | 

Row | SMILES | Potency | activity, positive = re-replication
49 | Cc1ccc(/C=C2\SC(=S)N(CCCC(=O)Nc3cc(C)on3)C2=O)cc1 |  | inactive: 2.49%
50 | O=c1nc2s/c(=C\c3ccc(-c4ccccc4[N+](=O)[O-])o3)c(=O)n2nc1-c1ccccc1 | inconclusive [activator, single point] | 
51 | C[C@H](CO)N1C[C@H](C)[C@@H](CN(C)S(=O)(=O)c2ccc(F)cc2)Oc2c(NC(=O)Nc3ccc(C(F)(F)F)cc3)cccc2C1=O | inconclusive [activator, single point] | 
52 | Cc1nnc(NC(=O)c2ccc(S(=O)(=O)N(C)Cc3ccccc3)cc2)o1 | inconclusive [activator, partial curve] | 
53 | CCOc1ccccc1NC(=S)Nn1cnnc1 | inconclusive [activator, single point] | 
54 | Cc1ccc(NC(=O)CCC(=O)N/N=C/c2cc([N+](=O)[O-])ccc2O)cc1 | inconclusive [activator, single point] | 
55 | Cc1cc(C)cc(N2C(N)=NC(N)=NC2c2cccc(Cl)c2)c1 (stereo unspecified) |  | inactive: 8.79%
56 | CCCCCc1cc(=O)[nH]c(=S)[nH]1 |  | inactive: -0.292%
57 | O=C(NCc1cccs1)C(=O)NCC(c1ccco1)N1CCN(c2ccc(F)cc2)CC1 (stereo unspecified) |  | inactive: 5.61%
58 | CC1(C)CCC(C)(C)c2cc(NC(=O)c3ccc(C(=O)O)cc3)ccc21 |  | inactive: -3.31%
59 | NC(=O)C1(N2CCCCC2)CCN(c2nc(-c3ccc(Br)cc3)cs2)CC1 | inconclusive [activator, full curve, poor fit] | 
60 | Cc1cc(C(=O)Nc2sc3c(c2C#N)CCC(C)C3)no1 (stereo unspecified) | active: 9.2 µM | 
61 | Cc1ccccc1CNc1ncnc2cc(Cl)ccc12 |  | inactive: -15.8%
62 | CC(=O)Nc1ccc(NC(=O)c2ccnn2C)cc1 |  | inactive: 1.48%
63 | Nc1nn(-c2ccccc2)nc1C(=O)OCc1ccccc1 |  | inactive: -10.1%
64 | COc1ccc(CCNc2oc(COc3ccccc3F)nc2C#N)cc1 | inconclusive [activator, single point] | 
65 | Cn1nnc(-c2ccc(OCc3ccccc3F)cc2)n1 |  | inactive: -0.365%
66 | CCC(CC)NC(=O)c1nn(Cc2ccccc2)c(=O)c2ccccc12 | inconclusive [activator, single point] | 
67 | c1cc(N2CCCC2)ccc1C(c1nnnn1C1CCCCC1)N1CCOCC1 (stereo unspecified) | inconclusive [activator, full curve, poor fit] | 
68 | O=c1c2ccccc2oc2c1oc1ccccc12 |  | inactive: -10.3%
69 | COc1ccc(CNC(=O)c2c(C)nc3ccccn23)cc1 |  | inactive: 0.226%
70 | CCCC(=O)NC(=S)Nc1ccc(S(=O)(=O)Nc2ccc(OCC)cc2)cc1 | inconclusive [activator, single point] | 
71 | CCOc1ccc(CCN2C(=O)C(=O)N([C@@H](CC(C)C)CN3CCC[C@@H]3CN3C(=O)C(=O)NC[C@@H]3Cc3ccccc3)C[C@@H]2Cc2ccc(O)cc2)cc1 | inconclusive [activator, partial curve, poor fit] | 
